Experimental data from PubChem BioAssay AID924 (National Center for Advancing Translational Sciences (NCATS), 2007).
Screen size: about 130,000 compounds; about 1,200 (0.92%) were called active. Inconclusive results, whose numbers are uncertain, are shown with a selection of clear calls. Calls follow the shape of the dose curve; as a rule, active = well fitted cell-killing curve with a large enough effect; inconclusive = small, poorly fitted or top-dose-only effect; inactive = no such curve, though single readings can be large or run the other way. A potency beside an inconclusive call is a rough fit, not a confirmed value.

Assay: qHTS Screen for Compounds that Selectively Target Cancer Cells with p53 Mutations: Cytotoxicity of p53ts Cells at the Permissive Temperature; also: nearly all actives have a fitted effect of over 55% in size;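 as to activity change, negative = cytotoxicity: 0% = DMSO and -100% = full killing by reference compound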
Details: H1299-p53A138V at 32C, ATP luminescence viability, 24 h; activity change, negative = cytotoxicity: at 46.1 µM (top of the series)
How it was run: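 Cells: H1299 p53ts (A138V), 600/well, pre-incubated 16–30 h at 37C. Cpd up to 46 uM, 24 h, 32C. Readout: ATPlite luminescence, 20 min RT. Normalization: DMSO vs tamoxifen 100 uM. AC50 by Hill equation.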
Potency is read from the fitted curve at half-maximal effect; tags tell the direction and shape of the fitted curve.

Compound	Potency	activity change, negative = cytotoxicity
CCOC(=O)N1CCN(c2c(F)cc3[nH]c(=S)[nH]c3c2Br)CC1	inconclusive: 31.6 µM [cytotoxic, single point]	
Cn1nnc2c(N3CCN(c4ccccc4Cl)CC3)ncnc21	inactive	
COC(=O)c1ccc(C(NC(=O)OCc2ccccc2)/C(F)=C/[C@@H](C)C(=O)NCc2ccc(OC)c(OC)c2)cc1 (some centres not stated)	inconclusive: 31.6 µM [cytotoxic, single point]	
CCOCCCNc1ccc(-c2ccccc2)nn1	inconclusive: 20 µM [cytotoxic, single point]	
Cc1c(-c2ccc(O)cc2)nn(-c2ccc(O)cc2)c1-c1ccc(OCCN2CCCCC2)cc1	inconclusive: 31.6 µM [cytotoxic, single point]	
CCCCOc1ccc(C(=O)C(CN2CCOCC2)c2ccccc2)cc1 (configuration not stated)	inconclusive: 17.8 µM [cytotoxic, single point]	
O=C(Nc1ccc(Cl)cc1)Nc1ccc2c(c1)N1CCN=C1S2	inactive	
CCOCCCNc1ncnc2c1cnn2-c1ccc(C)c(C)c1	inactive	
COC(=O)c1cc2ccsc2n1CC(=O)Nc1cc(C)cc(C)c1	inconclusive: 0.398 µM [cytotoxic, partial curve]	
CCOc1ccccc1NC(=O)Cn1cnc2c(cnn2-c2ccc(C)c(C)c2)c1=O	inactive	
Cc1nnc(N2CCC(C(=O)NCCc3ccccc3Cl)CC2)c2nn(-c3ccccc3)c(C)c12	inconclusive: 31.6 µM [cytotoxic, single point]	
Cc1ccccc1-c1nc2cc(NC(=O)Cc3ccc(Cl)cc3)ccc2o1	inconclusive: 31.6 µM [cytotoxic, single point]	
Oc1cccc(-c2nc3ccccc3s2)c1	active: 7.94 µM	
COCCCNC(=O)c1ccc(CSc2nc3cccnc3n2Cc2ccc(OC)cc2)cc1	inactive	
Clc1c(-c2nnc3n2CCC3)sc2ccccc12	inconclusive: 15.8 µM [cytotoxic, single point]	
CC1=C[N+](=O)c2ccccc2[N+]1=O		inactive: -1.42% [at 9.22 µM]
Cc1ccc(C(=O)Nc2ccc3nc(SCC(=O)N4CCc5ccccc54)sc3c2)cc1	inactive	
COc1ccc(CCNc2oc(COc3ccc(Br)cc3)nc2C#N)cc1OC	inconclusive: 20 µM [cytotoxic, single point]	
O=C(Nc1nc2c(s1)CCCC2)c1ccc2ncsc2c1	inconclusive: 11.2 µM [cytotoxic, partial curve]	
CCC(C)c1ccc(OCC(=O)Nc2cccc(-c3nc4ncccc4o3)c2)cc1 (configuration not stated)	inconclusive: 15.8 µM [cytotoxic, partial curve]	
CCC(Sc1nc2ccccc2c2nc(CCc3c(C)n[nH]c3C)nn12)C(=O)Nc1ccc(F)cc1 (configuration not stated)	inconclusive: 31.6 µM [cytotoxic, single point]	
O=C(Nc1ccccc1F)c1nc(S(=O)(=O)Cc2ccccc2F)ncc1Cl	inconclusive: 17.8 µM [cytotoxic, partial curve, poor fit]	
Clc1cccc(-n2ncc3c(NC4CCCCC4)ncnc32)c1	inconclusive: 15.8 µM [cytotoxic, single point]	

Compound	Potency	activity change, negative = cytotoxicity
CC(C)(C)OC(=O)N1CCC(c2c(C(=O)NCCN3CCC(Cc4ccccc4)CC3)cnn2-c2cccc(Cl)c2)CC1	inconclusive: 31.6 µM [cytotoxic, single point]	
Cc1c(C(=O)Nc2ccc3c(c2)OCCO3)sc2nc(-c3ccccc3)cn12	inconclusive: 25.1 µM [cytotoxic, single point]	
CSc1ccccc1NC(=O)CCS(=O)(=O)c1nc(-c2ccc3c(c2)OCO3)cc(C(F)(F)F)n1	inconclusive: 31.6 µM [cytotoxic, single point]	
CCN(Cc1nc(-c2ccc(OC)c(OC)c2)no1)S(=O)(=O)c1ccc(OC)cc1	inactive	
COc1ccc(-c2nc3sc(CCNC(=O)c4ccc(Br)o4)c(C)n3n2)cc1	inconclusive: 12.6 µM [cytotoxic, partial curve, poor fit]	
c1cn(-c2ncnc3ccc(-c4ccoc4)cc23)cn1	inconclusive: 25.1 µM [cytotoxic, single point]	
Cc1ccc2c(c1)N(CC(=O)NCc1cccnc1)C(=O)CO2	inconclusive: 0.891 µM [cytotoxic, partial curve]	
COCCNC(=O)c1cc(-c2cccc(OC)c2)on1	inconclusive: 31.6 µM [cytotoxic, single point]	
CCCNC(=O)c1ccc2c(c1)nc1n2CCCCC1	active: 12.6 µM	
Cc1cccc(-c2noc(-c3cc(C(C)C)[nH]n3)n2)c1	inactive	
O=c1c(-c2ccccc2)coc2cc(O)cc(O)c12	inconclusive: 0.316 µM [cytotoxic, partial curve]	
COc1ccc(-n2nc3c(N4CCC(C(=O)NCc5ccccc5C)CC4)nnc(C)c3c2C)cc1	inconclusive: 31.6 µM [cytotoxic, single point]	
COc1ccc(N(C)C(=O)Cn2cc(S(=O)(=O)N3CCN(c4ccccc4F)CC3)c3ccccc3c2=O)c(OC)c1	inactive	
CC1CCN(c2ccc(-c3cccc(NS(=O)(=O)c4ccc(F)cc4F)c3)nn2)CC1	active: 15.8 µM	
COc1ccccc1C(=O)Nc1c(C(=O)NC(C)(C)C)oc2ccccc12	inactive	
CC[C@H](C)[C@@H]1O[C@]2(CC[C@@H]1C)C[C@H]1C[C@H](CC=C(C)[C@@H](O[C@H]3C[C@H](OC)[C@H](O[C@H]4C[C@H](OC)[C@H](O)[C@H](C)O4)[C@H](C)O3)[C@@H](C)C=CC=C3CO[C@@H]4[C@@H](O)C(C)=C[C@H](C(=O)O1)[C@@]34O)O2	active: 10 µM	
Clc1ccc(OCc2nc(-c3ccncc3)no2)c(Br)c1	inconclusive: 20 µM [cytotoxic, single point]	
Cc1ccccc1Nc1c(-c2ccc(N3CCOCC3)cc2)nc2ccc(Br)cn12	inconclusive: 6.31 µM [cytotoxic, partial curve]	
COCCNC(=O)c1ccccc1NC(=O)c1nsc2ccccc12	inconclusive: 31.6 µM [cytotoxic, single point]	
COC(=O)Cn1c(SCCOc2ccccc2OC)nc2ccccc21	inactive	
Cc1cc(C)cc(NC(=O)Cc2noc3ccccc23)c1	inconclusive: 1.58 µM [cytotoxic, full curve, poor fit]	
Cc1ccc2c(c1)c1cccc3c1n2CCN3CCC(N)=O	inactive	
COc1ccc(C(=O)Nc2ccc(S(=O)(=O)Nc3onc(C)c3C)cc2)cc1	inconclusive: 31.6 µM [cytotoxic, single point]	

Compound	Potency	activity change, negative = cytotoxicity
O=C(CNC(=O)c1ccccc1Cl)N/N=C/c1ccc([N+](=O)[O-])s1	inconclusive: 0.0224 µM [cytotoxic, full curve, poor fit]	
O=c1cc(N2CCN(c3cccc(Cl)c3)CC2)[nH]c(=O)n1C1CCCCC1	inconclusive: 3.16 µM [cytotoxic, partial curve]	
COc1cc(NC(=O)c2cc3cc4ccc(C)cc4nc3o2)cc(OC)c1OC	inactive	
Cc1cc(NCCCn2ccnc2)n2ncc(-c3ccccc3)c2n1	active: 3.16 µM	
Cc1ccc(-n2ncc3c(N4CCCCCC4)ncnc32)cc1Cl	inconclusive: 2.51 µM [cytotoxic, full curve, poor fit]	
O=C(c1cnc(N2CCN(c3ncccn3)CC2)c2ccccc12)N1CCN(c2ncccn2)CC1	inconclusive: 31.6 µM [cytotoxic, single point]	
CCc1ccc(CNC(=O)C2CCCN(c3nnc(C)c4c(C)n(-c5ccccc5)nc34)C2)cc1 (configuration not stated)	inconclusive: 20 µM [cytotoxic, single point]	
Cc1cnc(CNc2nc(-c3ccc(N(C)C)cc3)nc3ccccc23)cn1	active: 10 µM	
CCN1CCN(C(=O)NC(C(=O)NC2C(=O)N3C(C(=O)O)=C(CSc4nnnn4C)CSC23)c2ccc(O)cc2)C(=O)C1=O (configuration not stated)	inactive	
COc1ccc(/C=N/NC(=S)Nc2cccc(C(=O)O)c2)cc1OC	inconclusive: 35.5 µM [cytotoxic, single point]	
Cc1ccc(CNC(=O)Nc2ccccc2)cc1	inconclusive: 20 µM [cytotoxic, single point]	
CCN1C(=O)c2cccc3c(S(=O)(=O)Nc4ncccc4C)ccc1c23	inactive	
CC(C)(C)n1ncc2c(=O)n(CC(=O)NCc3ccccc3Cl)cnc21	inconclusive: 7.94 µM [cytotoxic, partial curve]	
COc1ccc(N2CCN(Cc3nc4c(c(=O)[nH]c(=O)n4C)n3Cc3ccccc3C)CC2)cc1	inactive	
Cc1sc(NC(=O)CSc2nnc(COc3ccc(Cl)cc3)n2C)c(C#N)c1C	inconclusive: 31.6 µM [cytotoxic, single point]	
Cc1ccc(-c2cc(C(=O)N3CCOCC3)c3ccccc3n2)cc1	inconclusive: 12.6 µM [cytotoxic, partial curve]	
Cc1ccc(-c2nc3ccccc3[nH]2)s1	active: 12.6 µM	
Nc1c(C(=O)Nc2ccc(F)cc2)sc2nc(-c3cccs3)cc(C(F)(F)F)c12	inconclusive: 31.6 µM [cytotoxic, single point]	
CCOc1cc(C(=O)N(C)c2ccccc2)cc(OCC)c1OCC	inactive	
COc1ccc(/C=C/C(=O)CC(O)(c2ccccc2)C(F)(F)F)cc1 (configuration not stated)	inconclusive: 12.6 µM [cytotoxic, partial curve]	
COc1cc(C2CC(=O)N(Cc3cccc(F)c3)c3ccccc3S2)cc(OC)c1OC (configuration not stated)	inconclusive: 31.6 µM [cytotoxic, single point]	
